Data as given in paper PMC12820563.
Some of the results follow. The list includes weakly bound sequences.

molecular target: T1, MBP-FoxP3dN (UniProt Q99JB6); assay: PD-seq (MBP pull-down with sequencing); details: 20 mM Tris-HCl pH 7.5, 100 mM NaCl, 1.5 mM MgCl2, 0.4 uM protein, 0.1 uM dsDNA library, 30 min, room temperature, amylose pull-down; high values mean tight binding; double strand, one strand shown
T1 sequence: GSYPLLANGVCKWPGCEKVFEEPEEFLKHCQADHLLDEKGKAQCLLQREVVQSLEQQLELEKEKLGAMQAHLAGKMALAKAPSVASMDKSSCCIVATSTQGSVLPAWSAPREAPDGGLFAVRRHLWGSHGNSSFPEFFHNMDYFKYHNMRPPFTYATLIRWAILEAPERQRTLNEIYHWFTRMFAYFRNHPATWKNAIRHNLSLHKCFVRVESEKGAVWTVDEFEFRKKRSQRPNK

Sequence | binding signal (RPM ratio (pull-down/input))
GATGATTGTTCTCCCAGCTGATGAATTCCAATCTTCGAGTAAACAAATTTTCCTAATCTTTCTGTTCAAGCGCCATCTAC | 0.328
GATGATTGTTCTCCCAGCTGATGAATTCTCGCAATCGAGTAAACAAATTTTCCTAATCTTTCTGTTCAAGCGCCATCTAC | 2.31
GATGATTGTTCTCCCAGCTGATGAATTACACGATTCGAGTAAACAAATTTTCCTAATCTTTCTGTTCAAGCGCCATCTAC | 0.372
GATGATTGTTCTCCCAGCTGATGAATTATCGGAATCGAGTAAACAAATTTTCCTAATCTTTCTGTTCAAGCGCCATCTAC | 0.252
GATGATTGTTCTCCCAGCTGATGAATTCCGAAACTCGAGTAAACAAATTTTCCTAATCTTTCTGTTCAAGCGCCATCTAC | 0.676
GATGATTGTTCTCCCAGCTGATGAATTTCACTCCTCGAGTAAACAAATTTTCCTAATCTTTCTGTTCAAGCGCCATCTAC | 0.535
GATGATTGTTCTCCCAGCTGATGAATTAAGGCATTCGAGTAAACAAATTTTCCTAATCTTTCTGTTCAAGCGCCATCTAC | 5.16
GATGATTGTTCTCCCAGCTGATGAATTGGCTAGATCGAGTAAACAAATTTTCCTAATCTTTCTGTTCAAGCGCCATCTAC | 0.342
GATGATTGTTCTCCCAGCTGATGAATTACAAGATTCGAGTAAACAAATTTTCCTAATCTTTCTGTTCAAGCGCCATCTAC | 0.393
GATGATTGTTCTCCCAGCTGATGAATTTTTAGATTCGAGTAAACAAATTTTCCTAATCTTTCTGTTCAAGCGCCATCTAC | 0.271
GATGATTGTTCTCCCAGCTGATGAATTGGGACGATCGAGTAAACAAATTTTCCTAATCTTTCTGTTCAAGCGCCATCTAC | 0.234
GATGATTGTTCTCCCAGCTGATGAATTTCATTCGTCGAGTAAACAAATTTTCCTAATCTTTCTGTTCAAGCGCCATCTAC | 0.473
GATGATTGTTCTCCCAGCTGATGAATTACTGCTTTCGAGTAAACAAATTTTCCTAATCTTTCTGTTCAAGCGCCATCTAC | 0.824
GATGATTGTTCTCCCAGCTGATGAATTATCATTATCGAGTAAACAAATTTTCCTAATCTTTCTGTTCAAGCGCCATCTAC | 0.815
GATGATTGTTCTCCCAGCTGATGAATTGGTAGAATCGAGTAAACAAATTTTCCTAATCTTTCTGTTCAAGCGCCATCTAC | 0.282
GATGATTGTTCTCCCAGCTGATGAATTGAACGACTCGAGTAAACAAATTTTCCTAATCTTTCTGTTCAAGCGCCATCTAC | 0.321
GATGATTGTTCTCCCAGCTGATGAATTCCTTCACTCGAGTAAACAAATTTTCCTAATCTTTCTGTTCAAGCGCCATCTAC | 0.293
GATGATTGTTCTCCCAGCTGATGAATTAATTATGTCGAGTAAACAAATTTTCCTAATCTTTCTGTTCAAGCGCCATCTAC | 1.89
GATGATTGTTCTCCCAGCTGATGAATTCCGATGATCGAGTAAACAAATTTTCCTAATCTTTCTGTTCAAGCGCCATCTAC | 0.626
GATGATTGTTCTCCCAGCTGATGAATTCTCGGTCTCGAGTAAACAAATTTTCCTAATCTTTCTGTTCAAGCGCCATCTAC | 0.276

Sequence | binding signal (RPM ratio (pull-down/input))
GATGATTGTTCTCCCAGCTGATGAATTGGACGTTTCGAGTAAACAAATTTTCCTAATCTTTCTGTTCAAGCGCCATCTAC | 0.459
GATGATTGTTCTCCCAGCTGATGAATTCATTCGTTCGAGTAAACAAATTTTCCTAATCTTTCTGTTCAAGCGCCATCTAC | 0.344
GATGATTGTTCTCCCAGCTGATGAATTGGATATTTCGAGTAAACAAATTTTCCTAATCTTTCTGTTCAAGCGCCATCTAC | 0.826
GATGATTGTTCTCCCAGCTGATGAATTTGACATCTCGAGTAAACAAATTTTCCTAATCTTTCTGTTCAAGCGCCATCTAC | 1.91
GATGATTGTTCTCCCAGCTGATGAATTTGCCTCATCGAGTAAACAAATTTTCCTAATCTTTCTGTTCAAGCGCCATCTAC | 1.56
GATGATTGTTCTCCCAGCTGATGAATTATCCCGTTCGAGTAAACAAATTTTCCTAATCTTTCTGTTCAAGCGCCATCTAC | 0.326
GATGATTGTTCTCCCAGCTGATGAATTGACCCGCTCGAGTAAACAAATTTTCCTAATCTTTCTGTTCAAGCGCCATCTAC | 0.232
GATGATTGTTCTCCCAGCTGATGAATTATGCACCTCGAGTAAACAAATTTTCCTAATCTTTCTGTTCAAGCGCCATCTAC | 2.61
GATGATTGTTCTCCCAGCTGATGAATTAATCCTTTCGAGTAAACAAATTTTCCTAATCTTTCTGTTCAAGCGCCATCTAC | 0.3
GATGATTGTTCTCCCAGCTGATGAATTCGGCGTTTCGAGTAAACAAATTTTCCTAATCTTTCTGTTCAAGCGCCATCTAC | 3.28
GATGATTGTTCTCCCAGCTGATGAATTGATTTGTTCGAGTAAACAAATTTTCCTAATCTTTCTGTTCAAGCGCCATCTAC | 3.85
GATGATTGTTCTCCCAGCTGATGAATTGTAAAGATCGAGTAAACAAATTTTCCTAATCTTTCTGTTCAAGCGCCATCTAC | 0.29
GATGATTGTTCTCCCAGCTGATGAATTATCTAGCTCGAGTAAACAAATTTTCCTAATCTTTCTGTTCAAGCGCCATCTAC | 0.241
GATGATTGTTCTCCCAGCTGATGAATTCAAAGTGTCGAGTAAACAAATTTTCCTAATCTTTCTGTTCAAGCGCCATCTAC | 0.349
GATGATTGTTCTCCCAGCTGATGAATTGCCGGTATCGAGTAAACAAATTTTCCTAATCTTTCTGTTCAAGCGCCATCTAC | 0.68
GATGATTGTTCTCCCAGCTGATGAATTAGTTGGTTCGAGTAAACAAATTTTCCTAATCTTTCTGTTCAAGCGCCATCTAC | 5.37
GATGATTGTTCTCCCAGCTGATGAATTCTCGCCATCGAGTAAACAAATTTTCCTAATCTTTCTGTTCAAGCGCCATCTAC | 1.86
GATGATTGTTCTCCCAGCTGATGAATTAAACGAGTCGAGTAAACAAATTTTCCTAATCTTTCTGTTCAAGCGCCATCTAC | 0.265
GATGATTGTTCTCCCAGCTGATGAATTAGGCATTTCGAGTAAACAAATTTTCCTAATCTTTCTGTTCAAGCGCCATCTAC | 6.35
GATGATTGTTCTCCCAGCTGATGAATTTGAAGGATCGAGTAAACAAATTTTCCTAATCTTTCTGTTCAAGCGCCATCTAC | 0.22
